# Reference: PubChem BioAssay AID485360 (National Center for Advancing Translational Sciences (NCATS), 2010)
# The whole screen tested about 230,000 compounds, of which about 1,500 (0.65%) were called active. The shares of active, inactive and inconclusive entries below differ from those in the screen. Calls follow the shape of the dose curve; as a rule, active = well fitted inhibition curve with a large enough effect; inconclusive = small, poorly fitted or top-dose-only effect; inactive = no such curve, though single readings can be large or run the other way. Potencies beside an inconclusive call are fits to weak or partial responses and may not hold up.
# Biological target: Lethal(3)malignant brain tumor-like protein 1 (Homo sapiens) (UniProt Q9Y468)
# Test: qHTS Assay for the Inhibitors of L3MBTL1; also: nearly all actives have a fitted effect of over 60% in size
# Conditions: AlphaScreen L3MBTL1–H3K9me1 peptide binding; series mostly up to 57.1 µM
# Outline: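 L3MBTL1 50 nM + b-AHA-H3(1-15)K9me1 75 nM, 30 min RT; compound added, 30 min RT; streptavidin donor/Ni-chelate acceptor beads 10 ug/mL each final, 30 min RT dark; AlphaScreen read.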
# Potency is read from the fitted curve at half-maximal effect; tags tell the direction and shape of the fitted curve.
# UniProt Q9Y468, sequence (Q9Y468 whole entry, looked up): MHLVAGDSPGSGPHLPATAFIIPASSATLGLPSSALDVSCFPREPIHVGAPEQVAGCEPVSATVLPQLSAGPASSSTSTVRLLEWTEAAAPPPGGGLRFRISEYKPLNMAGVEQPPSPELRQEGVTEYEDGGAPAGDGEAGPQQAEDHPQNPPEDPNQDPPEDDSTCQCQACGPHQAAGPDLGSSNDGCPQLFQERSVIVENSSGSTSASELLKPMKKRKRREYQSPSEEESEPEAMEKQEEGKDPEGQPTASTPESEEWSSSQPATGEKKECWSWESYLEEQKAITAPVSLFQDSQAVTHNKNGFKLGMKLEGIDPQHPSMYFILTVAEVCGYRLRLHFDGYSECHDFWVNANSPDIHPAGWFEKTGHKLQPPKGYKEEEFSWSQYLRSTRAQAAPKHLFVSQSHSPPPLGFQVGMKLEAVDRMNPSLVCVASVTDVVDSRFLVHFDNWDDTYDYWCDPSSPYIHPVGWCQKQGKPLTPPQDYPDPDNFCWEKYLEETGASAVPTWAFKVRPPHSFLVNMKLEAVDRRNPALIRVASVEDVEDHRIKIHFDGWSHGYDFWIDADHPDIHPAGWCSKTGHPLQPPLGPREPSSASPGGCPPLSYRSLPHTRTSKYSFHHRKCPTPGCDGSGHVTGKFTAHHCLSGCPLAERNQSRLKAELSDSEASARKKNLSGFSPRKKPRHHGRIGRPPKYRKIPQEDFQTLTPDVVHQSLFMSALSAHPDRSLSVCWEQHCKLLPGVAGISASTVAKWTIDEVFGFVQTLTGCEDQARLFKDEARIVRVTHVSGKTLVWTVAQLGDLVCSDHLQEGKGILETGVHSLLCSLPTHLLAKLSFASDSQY
row,Structure (SMILES),Potency
1,N#CCCN(CCN1CCCC1)S(=O)(=O)c1ccc(-c2ccc([N+](=O)[O-])cc2)cc1,inactive
2,Cc1ccc(-c2cc(C(=O)NC3=NCCS3)c3cc(Br)ccc3n2)o1,active: 31.6 µM
3,COc1ccc(-n2c(SCc3cn4c(C)cccc4n3)nc3ccccc3c2=O)cc1OC,"inconclusive: 35.5 µM [inhibitor, single point]"
4,O=C(Cc1cccc2ccccc12)N/N=C/c1ccc(Sc2nc3ccccc3s2)o1,"inconclusive: 0.891 µM [inhibitor, full curve, poor fit]"
5,O=C(/C(=C/O)N=Nc1cccc(C(F)(F)F)c1)c1ccccc1,"inconclusive: 0.158 µM [inhibitor, full curve, poor fit]"
6,Nc1[nH]n(-c2ccccc2)c(=O)c1N=Nc1ccc2c(c1)OCCO2,"inconclusive: 2.51 µM [inhibitor, full curve]"
7,O=C(O)C1CCCN1C(=O)Nc1ccccc1 (stereo unspecified),"inconclusive: 1.12 µM [inhibitor, single point]"
8,COc1ccc(OC)c(-c2csc(NC(=O)COC(=O)C3CCC3)n2)c1,inactive
9,CN(C)c1ccc(C(=S)N2CCN(c3ccccc3)CC2)cc1,"inconclusive: 25.1 µM [inhibitor, single point]"
10,CC(C(=O)N1CCCCC1)N(C)CC(=O)Nc1cccc(F)c1 (stereo unspecified),inactive
11,O=C(Cc1cccs1)Nc1nnc(SCc2ccc(C(F)(F)F)cc2)s1,inactive
12,COc1ccc(C(=O)Nc2nc3c(s2)Cc2cc(OC)ccc2-3)cc1,inactive
13,CCOc1ccc(NC(=O)CN(C)C(=O)c2cccc(S(=O)(=O)N3CCCC3)c2)cc1OCC,"inconclusive: 6.31 µM [inhibitor, single point]"
14,Cc1nc(N2CCCC2)c2ccsc2n1,"inconclusive: 0.708 µM [inhibitor, single point]"
15,COc1ccc(N2CCN(C(=O)c3cccc(S(=O)(=O)N4CCc5ccccc54)c3)CC2)cc1,"inconclusive: 17.8 µM [inhibitor, single point]"
16,S=C(NCc1ccccn1)Nc1ccccc1,inactive
17,Cc1noc(/C=C/c2ccco2)c1S(=O)(=O)N1CCC(C(=O)N2CCc3ccccc3C2)CC1,"inconclusive: 28.2 µM [inhibitor, single point]"
18,c1csc(COc2ccccc2CNC2CCCCC2)c1,"inconclusive: 0.708 µM [inhibitor, single point]"
19,CC(C)(/C=N/O)/[N+]([O-])=C/c1ccco1,inactive
20,N/C(=N\N=C\c1ccc2c(c1)OCO2)SC1CC(=O)N(c2ccc(C(=O)O)cc2)C1=O (stereo unspecified),"inconclusive: 10 µM [inhibitor, single point]"
21,CCOC(=O)c1c(N)nn(C(=O)CC)c1-c1ccccc1,"inconclusive: 6.31 µM [inhibitor, single point]"
22,CCCOc1ccc(CN(CCC#N)C(=S)NC(=O)c2ccccc2)cc1,"inconclusive: 15.8 µM [inhibitor, partial curve]"
23,CCOc1cc(C2NC(=O)NC(c3ccccc3)=C2C(C)=O)ccc1OC(C)=O (stereo unspecified),"inconclusive: 39.8 µM [inhibitor, single point]"
24,O=[N+]([O-])c1c(Nc2ccccc2O)cc(Cl)c2nonc12,"inconclusive: 15.8 µM [inhibitor, partial curve]"

row,Structure (SMILES),Potency
1,COc1ccc(C(=O)NC(=S)N(C)Cc2ccccc2)cc1Br,inactive
2,Cc1ccc(Nc2nc(-c3cccnc3)nc3ccccc23)cc1,inactive
3,CCN(CC)CCn1c2c(c(SCC(=O)Nc3nc(C)cs3)nc1=O)CCCC2,"inconclusive: 0.562 µM [inhibitor, partial curve, poor fit]"
4,CCC(=O)Nc1cccc(NC(=S)NC(=O)c2ccccc2C)c1,"inconclusive: 35.5 µM [inhibitor, single point]"
5,CN(C)c1nc(=NCc2ccco2)ss1,inactive
6,Cc1nn(CC2CC2)c(=O)n1-c1ccccc1,"inconclusive: 2.24 µM [inhibitor, partial curve]"
7,CCN(CC)CCNS(=O)(=O)c1ccc2[nH]cc(C(=O)O)c(=O)c2c1,"inconclusive: 35.5 µM [inhibitor, single point]"
8,CC(=O)c1c(COC(=O)c2ccncc2)nc2ccccc2[n+]1[O-],active: 35.5 µM
9,COc1cnc(-c2ccccn2)nc1Sc1ccccc1,"inconclusive: 14.1 µM [inhibitor, partial curve]"
10,CCOC(=O)c1cc2c(=O)n3ccccc3nc2n(Cc2ccco2)c1=NC(=O)c1ccc(OC)cc1OC,inactive
11,O=C(NCc1ccc(F)cc1)c1ccc(N2CCc3ccccc32)c([N+](=O)[O-])c1,"inconclusive: 31.6 µM [inhibitor, partial curve]"
12,COc1cc2[nH]c(=O)n(CCC(=O)N3CCN(Cc4ccccc4)CC3)c(=O)c2cc1OC,"inconclusive: 0.1 µM [inhibitor, full curve, poor fit]"
13,CCOC(=O)c1cnn(-c2nc(SC)nc3sc4c(c23)CCC4)c1N,"inconclusive: 6.31 µM [inhibitor, single point]"
14,CC(C(=O)Nc1ccccc1C#N)N1C(=O)NC2(CCCCCC2)C1=O (stereo unspecified),"inconclusive: 0.708 µM [inhibitor, single point]"
15,Oc1c(Cl)cc(Cl)cc1Sc1cc(Cl)cc(Cl)c1O,inactive
16,CN(C)c1ccc2c(c1)Sc1cc(N(C)C)ccc1N2C(=O)c1ccccc1,"inconclusive: 20 µM [inhibitor, partial curve]"
17,CN=c1scc(-c2cccs2)n1/N=C/c1ccc(O)c(O)c1O,active: 14.1 µM
18,CCOC(=O)CCCCC(=O)c1[nH]c(=O)[nH]c1Cn1cnc2ccccc21,inactive
19,Cc1cccc(NC2=C(NC(=O)c3ccccc3)C(=O)c3ccccc3C2=O)c1,"inconclusive: 28.2 µM [inhibitor, single point]"
20,COc1ccccc1C(=O)/C=C/c1ccc(N2CCCCC2)c([N+](=O)[O-])c1,"inconclusive: 3.16 µM [inhibitor, full curve]"
21,COc1ccccc1-c1sc2cc3c(cc2c1C#Cc1cncn1C)OCO3,"inconclusive: 39.8 µM [inhibitor, single point]"
22,CCOC(=O)c1c(C)[nH]c(-c2csc(N)n2)c1C,"inconclusive: 0.316 µM [inhibitor, full curve]"
23,COc1ccc(/C=N/NC(=O)c2ccc(O)cc2O)cc1CSc1ccccn1,"inconclusive: 35.5 µM [inhibitor, single point]"
24,C/C(CC(=O)NCc1ccc(F)cc1)=N\NC(N)=S,inactive

row,Structure (SMILES),Potency
1,O=C1C(=O)N(c2cccc(Cl)c2)C(c2ccccc2[N+](=O)[O-])/C1=C(\O)c1ccccc1 (stereo unspecified),inactive
2,CCN1/C(=C/C(C)=O)Sc2ccc(OC)cc21,"inconclusive: 7.08 µM [inhibitor, single point]"
3,COC(=O)c1ccccc1NC(=O)COC(=O)c1ccco1,"inconclusive: 39.8 µM [inhibitor, single point]"
4,Cc1cc2c(cc1S(=O)(=O)N1CCN(c3cccc(C)c3C)CC1)OCCN2C,"inconclusive: 31.6 µM [inhibitor, single point]"
5,O=c1oc2ccccc2c(O)c1C=NCc1ccccn1,active: 15.8 µM
6,COCCN=c1scc(-c2cc(OC)c(OC)c(OC)c2)n1/N=C/c1c(C)[nH]c2ccccc12,"inconclusive: 39.8 µM [inhibitor, single point]"
7,O=C(CSc1nc2ccc(Cl)cc2[nH]1)Nc1ccc2[nH]c(=O)[nH]c2c1,inactive
8,CCOC(=O)C1CCCN(c2cc(C)nc3cc(-c4ccc(Cl)cc4)nn23)C1 (stereo unspecified),"inconclusive: 7.08 µM [inhibitor, single point]"
9,O=C(/C=C/c1ccco1)Nc1sc2c(c1C(=O)O)CCC2,"inconclusive: 28.2 µM [inhibitor, single point]"
10,Cc1ccccc1OCCCN1CCCC1,inactive
11,CCOc1cc(/C=N/N=C2/NC(=O)C(CC(=O)O)S2)ccc1OCc1ccc(Cl)cc1 (stereo unspecified),"inconclusive: 31.6 µM [inhibitor, single point]"
12,O=C(COC(=O)c1ccc(Cl)nc1)Nc1ncc(Cl)cc1Cl,"inconclusive: 25.1 µM [inhibitor, single point]"
13,O=C(Nc1nc(-c2ccco2)c(-c2ccco2)s1)C1CCC1,"inconclusive: 28.2 µM [inhibitor, single point]"
14,C=CCNC(=O)CSc1nc2sc(C)c(C)c2c(=O)[nH]1,"inconclusive: 39.8 µM [inhibitor, single point]"
15,O=C(CSc1ncccn1)Nc1ccc2[nH]c(=O)[nH]c2c1,inactive
16,Cc1ccc2nc(/N=C(\N)NC(=O)NC3CCCCC3)nc(C)c2c1,inactive
17,COc1ccc(/C=C/C(=O)O)cc1S(=O)(=O)N1CCCC1,inactive
18,Nc1nccc(/C=C/c2c(F)cccc2Cl)n1,"inconclusive: 25.1 µM [inhibitor, single point]"
19,Cc1cc(C(=O)COC(=O)[C@H](C)NC(=O)c2ccco2)c(C)n1Cc1ccco1,"inconclusive: 20 µM [inhibitor, single point]"
20,C/C(CCN1CCCCc2nc(C)c(C)cc21)=N\O[C@H](C)c1cn([C@H](CO)Cc2ccccc2)nn1,inactive
21,Cc1[nH]n(-c2ccccc2)c(=O)c1/C=N/Nc1nncc(-c2ccccc2)n1,active: 25.1 µM
22,O=C(Nc1cccc2ncccc12)c1ccc(Cl)cc1,"inconclusive: 5.62 µM [inhibitor, partial curve]"
23,O=C(c1ccc(Cl)c(S(=O)(=O)N2CCc3ccccc32)c1)N1CCN(c2ccccc2O)CC1,"inconclusive: 39.8 µM [inhibitor, single point]"
